# From article PMC4336329 (PLoS ONE, 2015)
# The campaign covered roughly 310,000 compounds. About 2,200 (0.71%) showed an effect of 50% or more. Effects have a minus sign here. The list shows a part of the results.
# Target: human ether-à-go-go-related gene (hERG) potassium channel (human, UniProt Q12809)
# Assay: primary screen, population patch clamp on CHO cells stably expressing hERG
# human ether-à-go-go-related gene (hERG) potassium channel, sequence (Q12809 whole entry, looked up): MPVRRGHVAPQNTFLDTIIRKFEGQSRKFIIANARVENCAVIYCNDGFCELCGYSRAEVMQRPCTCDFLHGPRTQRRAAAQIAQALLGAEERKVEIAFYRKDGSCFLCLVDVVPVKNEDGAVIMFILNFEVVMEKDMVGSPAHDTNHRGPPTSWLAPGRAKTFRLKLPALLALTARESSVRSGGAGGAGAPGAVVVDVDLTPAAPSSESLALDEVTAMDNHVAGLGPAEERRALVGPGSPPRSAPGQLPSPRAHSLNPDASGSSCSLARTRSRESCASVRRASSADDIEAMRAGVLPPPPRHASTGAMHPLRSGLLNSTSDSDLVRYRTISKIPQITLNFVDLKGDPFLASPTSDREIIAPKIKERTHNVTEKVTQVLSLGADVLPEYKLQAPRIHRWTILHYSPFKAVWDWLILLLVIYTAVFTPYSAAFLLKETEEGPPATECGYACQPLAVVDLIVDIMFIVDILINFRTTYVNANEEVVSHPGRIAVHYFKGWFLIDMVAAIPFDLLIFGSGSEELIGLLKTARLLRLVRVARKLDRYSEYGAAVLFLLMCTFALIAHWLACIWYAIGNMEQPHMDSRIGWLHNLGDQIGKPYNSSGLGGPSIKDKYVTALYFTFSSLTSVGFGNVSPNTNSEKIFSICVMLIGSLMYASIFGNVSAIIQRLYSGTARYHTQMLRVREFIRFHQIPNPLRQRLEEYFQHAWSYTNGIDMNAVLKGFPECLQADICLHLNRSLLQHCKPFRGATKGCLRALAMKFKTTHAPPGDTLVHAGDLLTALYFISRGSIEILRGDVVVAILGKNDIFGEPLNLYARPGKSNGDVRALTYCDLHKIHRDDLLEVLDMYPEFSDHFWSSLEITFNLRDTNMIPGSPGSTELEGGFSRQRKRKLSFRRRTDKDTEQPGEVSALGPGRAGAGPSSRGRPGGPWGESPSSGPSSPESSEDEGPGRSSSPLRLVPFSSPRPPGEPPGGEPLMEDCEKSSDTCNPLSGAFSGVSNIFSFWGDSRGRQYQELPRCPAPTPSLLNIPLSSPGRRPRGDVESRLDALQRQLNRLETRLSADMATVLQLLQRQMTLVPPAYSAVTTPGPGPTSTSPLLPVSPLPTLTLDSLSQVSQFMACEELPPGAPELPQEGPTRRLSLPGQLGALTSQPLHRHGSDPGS
row,SMILES,"hERG current change (%, negative = inhibition) at 1uM [%]"
1,CCN(CC(=O)Nc1ccc(OC)cc1)C(=O)c1ccc(=O)n(Cc2ccccc2)n1,-4.32
2,CC1=C(C(=O)Nc2ccc(C)cc2C)C(c2cccs2)NC(=S)N1 (stereo not shown),-3.45
3,Cl.O=C(CN1CCN(C2CCCCC2)CC1)Nc1ccc(Br)cc1,-45.6
4,COc1ccc(-c2nnc(SCc3ccc(C(=O)O)cc3)n2N)cc1,0.42
5,O=C(COC(=O)c1ccc(Cl)nc1)Nc1ccc2c(c1)OCO2,12.4
6,Fc1ccc(Nc2nc(-c3ccncc3)cs2)cc1,5.83
7,O=C(O)c1ccc(N/N=C/c2ccc3ncccc3c2)cc1,10.8
8,CCNC(=O)/C(=C\C=C\c1ccccc1)NC(=O)c1ccc(Br)o1,6.46
9,O=C1[C@@H]2[C@H]3CC[C@H](C3)[C@@H]2C(=O)N1O,18.4
10,Cc1cc(N2CCOCC2)ccc1/C=C1\C(=O)NC(=O)N(c2ccccc2)C1=O,13.8
11,COc1ccccc1C(=O)Nc1ccc(Nc2ccccc2)cc1,14.8
12,COCCNC(=S)N1CCN(c2nc(-c3ccc(Cl)cc3)cs2)CC1,9.43
13,CCC(C)NCCCOc1cc(Cl)ccc1Cl.O=C(O)C(=O)O (stereo not shown),-9.91
14,COc1ccccc1NC(=O)CC1S/C(=N/N=C(\C)C2CCCCC2)NC1=O (stereo not shown),12.6
15,CN(C)c1ccc(-c2cc([C@H]3[C@@H]4C=CCC[C@@]4(C)C(=O)N3Cc3ccccc3)ccc2F)cc1,13.4
16,COc1cc2cc(CN(Cc3cccs3)C(=S)Nc3ccccc3)c(=O)[nH]c2cc1OC,0.55
17,COc1cc2c(cc1OC)CN(Cc1cc(OC)c3c(c1)OCO3)CC2,18.4
18,[N-]=[N+]=NCc1cn2cccnc2n1,21
19,Cc1ccc(NC(=O)NC(=O)CN2C(=O)NC3(CCc4ccccc43)C2=O)c(C)c1 (stereo not shown),4.35
20,CC(=O)N1CCN(C(=O)c2cccc(NS(=O)(=O)c3ccc(Br)cc3)c2)CC1,4.77
21,O=C(Nc1ccc(C(=O)O)cc1)/C(=C/c1ccc2c(c1)OCO2)NC(=O)c1cccc(Br)c1,7.15
22,O=C(O)c1nnn(-c2cccc(C(F)(F)F)c2)c1-c1ccccc1,13.8

row,SMILES,"hERG current change (%, negative = inhibition) at 1uM [%]"
1,Cc1ccc(NC(=O)CCc2nnc3ccc(N4CCC5(CC4)OCCO5)nn23)nc1,9.06
2,COC(=O)c1sc(N2CCN(Cc3ccccc3)CC2)nc1N,16.4
3,Cc1ccnc(NC(=O)C(C)N2C(=O)c3ccccc3S2(=O)=O)c1 (stereo not shown),9.85
4,CC1(C)C2CCC(C2)C1(C)NC(=O)CN1CCN(Cc2ccccc2)CC1.Cl (stereo not shown),15
5,Cn1c(=O)[nH]c(=O)c2c1nc(SCCO)n2CCCc1ccccc1,5.4
6,COc1ccc(NC(C)=O)cc1NC(=O)CN1CCN(C2c3ccccc3-c3ccccc32)CC1,13.5
7,O=C(NCCc1ccccc1)C1CCCN(c2nc3ccccc3s2)C1 (stereo not shown),8.79
8,COc1nc(NCC(C)C)nc(Oc2ccc(OCc3ccccc3)nn2)n1,2.77
9,Cc1ccc(NS(=O)(=O)c2ccc(/C=C/C(=O)O)cc2)cc1Cl,16.3
10,O=C(C(=O)N1CC=C(c2ccccc2)CC1)c1c[nH]c2ccccc12,6.67
11,COc1cccc(/C=C(\C)C(=O)c2c(C)cc(C)[nH]c2=O)c1OC,11.4
12,COc1cc2nc(SCC(=O)NCCc3ccccc3)n(Cc3ccco3)c(=O)c2cc1OC,7.18
13,O=C(Cc1cccc(C(F)(F)F)c1)Nc1cc(S(=O)(=O)N2CCOCC2)ccc1N1CCCC1,3.37
14,COc1cc(/C=C2\SC(=Nc3ccc(O)cc3)NC2=O)cc(OC)c1OC,13.5
15,COc1cccc(CCNC(=O)c2ccc(OC)c(OC3CCN(C(C)C)CC3)c2)c1,-2.35
16,COC(=O)CSc1nnc(-c2cccc(NC(=O)c3ccc(C)cc3)c2)n1C,-6.35
17,COc1ccccc1C1NC(=O)c2ccccc2O1 (stereo not shown),4.52
18,CCc1ccc(N(CC(=O)O)S(=O)(=O)c2c(C)noc2C)cc1,12.8
19,NS(=O)(=O)c1ccc(NC(=O)c2cccc(N3C(=O)c4ccccc4C3=O)c2)cc1,14.3
20,N#CC1(Cc2ccccc2)c2ccccc2C=CN1C(=O)c1ccccc1 (stereo not shown),5.3
21,COc1ccccc1C(=O)Nc1ccc2c(c1)nc(CN1CCCCC1)n2C,-1.16
